Source: PubChem BioAssay AID1508623 (National Center for Advancing Translational Sciences (NCATS), 2021)
The campaign covered roughly 48,000 compounds. About 450 (0.94%) were called active. Roughly 19% stayed inconclusive and do not appear here. Calls follow the shape of the dose curve; as a rule, active = well fitted inhibition curve with a large enough effect; inconclusive = small, poorly fitted or top-dose-only effect; inactive = no such curve, though single readings can be large or run the other way. The list shows a part of the results.

Experiment: Primary qHTS for Identification of Small Molecule Inhibitors of Huntingtin Promoter Activity; also: nearly all actives have a fitted effect of over 50% in size
Details: HEK293 HTT promoter firefly luciferase reporter (activity 0% = vehicle and -100% = no light), 24 h; series mostly up to 57.5 µM; activity change, negative = inhibition: at the top concentration
Method in brief: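 HEK293 cells carrying firefly luciferase reporters were seeded at 2,500 per well in Opti-MEM and cultured for 24 h. They were then treated with compounds at up to 57.5 uM final for 24 h at 37 degrees C before Dual-Glo luminescence readout.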
Potency is read from the fitted curve at half-maximal effect.

| SMILES | activity change, negative = inhibition | Potency |
| --- | --- | --- |
| COc1ccc(Cn2c(SCC(=O)NCc3ccccc3)nc3ccccc32)cc1 | inactive: -37.8% | – |
| CCOc1ccc(NC(=O)Cn2nnc(C(=O)OC)c2C(=O)OC)cc1 | inactive: -12.2% | – |
| Cc1ccc(C(=O)NCC(=O)OCc2cc(=O)n3nc(C4CCCCC4)sc3n2)cc1 | inactive: -18.3% | – |
| COc1ccc(C(=O)NC2(C(F)(F)F)C(=O)NC(C)=C2C#N)cc1 (stereo not drawn) | inactive: -2.05% | – |
| Cc1ccc2c(c1)C(c1ccc(F)cc1)N(C(=O)C(C)C)CC(=O)N2 (stereo not drawn) | inactive: -1.41% | – |
| CCc1cccc(NC(=O)Cn2nc(CC)n3c(cc4cc(C)ccc43)c2=O)c1 | inactive: 14.2% | – |
| O=c1oc2ccc3ccccc3c2cc1-c1nnc(Nc2ccccc2)s1 | inactive: -2.05% | – |
| Cc1ccc(CCNC(=O)c2sc3ncccc3c2-n2cccc2)cc1 | inactive: -16.1% | – |
| COc1cc(NC(=O)c2nc3cc(C)c(C)cc3n(C)c2=O)cc(OC)c1OC | inactive: -0.223% | – |
| COc1cccc(NC(=O)CSc2nc(O)c(C/C=C/c3ccccc3)c(=O)[nH]2)c1 | inactive: -8.89% | – |
| COc1ccc(N2CCN(S(=O)(=O)c3ccc(-c4cc(C(F)(F)F)on4)s3)CC2)cc1 | inactive: 2.74% | – |
| CCC(=O)Nc1cc(C(=O)NCc2ccc(C)cc2)ccc1S(=O)(=O)c1ccc(C)cc1 | inactive: -8.84% | – |
| Cc1cccc(OCc2ccc(-c3nc(C#N)c(N4CCN(c5ccccc5)CC4)o3)o2)c1 | inactive: -21.9% | – |
| Cc1cc(C)c2oc(C(=O)Nc3c(C(=O)c4ccc(F)cc4)oc4ccccc34)cc(=O)c2c1 | inactive: 1.81% | – |
| CC1CCC(NC(=O)C2(C)Cc3ccccc3C(=O)N2Cc2ccccc2Cl)CC1 (stereo not drawn) | inactive: -13.8% | – |
| CCN(CC)c1ccc(NC(=O)Cn2c(C)c3cnn(-c4ccccc4)c(=O)c3c2C)c(C)c1 | inactive: -13.9% | – |
| Cc1cc(Cl)ccc1NC(=O)CCS(=O)(=O)c1cc2c(cc1C)NC(=O)CO2 | inactive: -21.1% | – |
| COC(=O)c1c(-c2cccs2)csc1NC(=O)c1cc(OC)cc(OC)c1 | inactive: 29.8% | – |
| Cc1ccc(CNC(=O)C(CC(C)C)N2Cc3ccccc3C2=O)cc1 (stereo not drawn) | inactive: -29.2% | – |
| Cc1cc(C)cc(NC(=O)C(Cc2ccccc2)N2Cc3ccccc3C2=O)c1 (stereo not drawn) | inactive: -19.4% | – |
| Clc1cccc(-n2ncc3c(NCCCc4ccccc4)ncnc32)c1 | inactive: -23.7% | – |
| CCN(C(=O)Cn1nc(Cc2cccnc2)c2ccccc2c1=O)c1cc(C)ccc1C | inactive: -21.7% | – |
| Cc1ccccc1C(=O)Nc1nnc(S(=O)(=O)N2CCCc3ccccc32)s1 | inactive: -20% | – |
| Cc1ccc(-n2c(=O)c3sccc3n(Cc3cc(=O)n4ccccc4n3)c2=O)cc1 | inactive: -9.4% | – |
| COc1ccc(C(=O)N2CCC(C(=O)Nc3ccc(OC)cc3OC)CC2)cc1 | inactive: -21.4% | – |

| SMILES | activity change, negative = inhibition | Potency |
| --- | --- | --- |
| Cc1onc(-c2ccccc2)c1C(=O)N[C@@H]1C(=O)N2[C@@H](C(=O)O)C(C)(C)S[C@@H]12 | inactive: 5.4% | – |
| Cc1cccc(-c2cc(NC(=O)COc3ccccc3F)n(-c3ccccc3)n2)c1 | inactive: 14.2% | – |
| Cc1nnsc1C(=O)Oc1ccccc1Cl | inactive: 3.16% | – |
| Cc1ccc(-c2cn3c4c(=O)n(C)c(=O)n(C)c4nc3n2-c2cccc(Cl)c2)cc1 | inactive: -11.1% | – |
| CSc1ccccc1NC(=O)CCS(=O)(=O)c1nc(-c2cccs2)cc(C(F)(F)F)n1 | inactive: -5.6% | – |
| CCn1c(C(=O)Nc2cc(C)cc(C)c2)cc2sc(Cl)cc21 | inactive: -21.7% | – |
| COc1ccc(C(=O)N=c2sc3cc(Cl)ccc3n2C)cc1 | inactive: 11.2% | – |
| CCN(CC)CCOC(=O)c1ccc(NC(=O)CCn2c(=O)oc3ccccc32)cc1 | inactive: -0.0139% | – |
| N#Cc1ccccc1NC(=O)C(=O)NCC(c1cccnc1)N1CCc2ccccc2C1 (stereo not drawn) | inactive: 0.807% | – |
| CN1[C@@H]2CC[C@H]1CC(OC(=O)c1c[nH]c3ccccc13)C2 (stereo partly drawn) | inactive: -4.77% | – |
| CCCCN(C)c1ncnc2c1cnn2-c1cccc(Cl)c1 | inactive: 16.4% | – |
| CCC(=O)N1CCc2cc(S(=O)(=O)NCCC(=O)Nc3cccc(C)c3C)ccc21 | inactive: -15.4% | – |
| Cc1cc(SCC(=O)NCc2ccccc2)nc(=O)[nH]1 | inactive: -8.92% | – |
| COc1cccc(CNc2ccc3c(c2)ncn3C)c1OC | inactive: 9.78% | – |
| COc1ccc(OC)c(CCNC(=O)C(C)n2nc(C)c3c(C)n(-c4ccc(C)cc4)nc3c2=O)c1 (stereo not drawn) | – | active: 1.58 µM |
| O=C(NCc1ccccc1Br)c1ccc(-n2cnc3cccnc32)cc1 | inactive: -22.8% | – |
| COc1ccc(N(CC(=O)Nc2ccc(Cl)cc2C)S(=O)(=O)c2ccccc2)c(OC)c1 | inactive: -12.8% | – |
| COc1cc(-c2nnc(SCC(=O)N3CCCc4ccccc43)o2)cc(OC)c1OC | inactive: -9.44% | – |
| CCCN(C(=O)CCn1cnc2onc(-c3ccc(F)cc3)c2c1=O)c1ccccc1C | inactive: -25.1% | – |
| CCOC(=O)c1c(-c2ccccc2)csc1NC(=O)c1cc(-c2cccc(OC)c2)on1 | inactive: -11.2% | – |
| Cc1ccc(Cl)cc1N1CCN(C(=O)Cn2nc(C)n3c(cc4sccc43)c2=O)CC1 | inactive: -10.4% | – |
| Cc1cc(C)cc(C(=O)Nc2c3c(nn2-c2ccccc2C)CS(=O)(=O)C3)c1 | inactive: -7.71% | – |
| O=C(Cn1nc2c(cc1=O)CCCC2)NCc1ccccc1Cl | inactive: 49.7% | – |
| Cc1ccc(C(=O)Nc2nnc(SCc3cc(=O)n4ccc(C)cc4n3)s2)cc1 | inactive: 22.4% | – |
| Cc1cc(C)cc(NC(=O)Cn2nnc(C(=O)NCc3ccco3)c2N)c1 | inactive: -19% | – |

| SMILES | activity change, negative = inhibition | Potency |
| --- | --- | --- |
| O=C(CN1C(=O)COc2ccc(S(=O)(=O)N3CCCCCC3)cc21)N1CCN(c2ccccc2)CC1 | inactive: -13.4% | – |
| COCCNC(=O)Cn1c(=O)n(-c2ccc(C)c(C)c2)c(=O)c2c3c(sc21)CCCCC3 | inactive: -10.3% | – |
| COc1ccc(NC(=O)CN2CCN(S(=O)(=O)c3ccc(Br)cc3)CC2)cc1 | inactive: -36.6% | – |
| COc1ccc(Cl)cc1NC(=O)C(C)N1Cc2ccccc2C1=O (stereo not drawn) | inactive: -17.9% | – |
| CCOc1cc(CNC(=O)C(NS(=O)(=O)c2cccs2)C(C)C)cc(OCC)c1OCC (stereo not drawn) | inactive: -13.8% | – |
| O=C(Cn1c(SCc2cccc(F)c2)nc2ccncc21)Nc1ccc(Cl)cc1F | inactive: -18.6% | – |
| COc1ccc(NCc2cccn2-c2nnc(N3CCOCC3)s2)c(OC)c1 | inactive: 5.65% | – |
| COc1ccc(C(=O)Nc2ccc3nc(N4CCCCC4)cc(C)c3c2)c(OC)c1 | inactive: 1.07% | – |
| Cc1cn2c(=O)cc(COc3cccc(NC(=O)c4cccc(F)c4)c3)nc2s1 | inactive: -4.96% | – |
| COc1ccc(N2CCN(S(=O)(=O)CCNC(=O)Cc3ccc(-c4ccccc4)cc3)CC2)cc1 | inactive: -27.8% | – |
| CCOc1ccccc1CNC(=O)c1cccc(NC(=O)c2nsc3ccccc23)c1 | inactive: 16.1% | – |
| Cc1ccc(S(=O)(=O)c2cnc(SCC(=O)Nc3cccc(Cl)c3)nc2N)cc1C | inactive: -13.4% | – |
| CCN(CC)C(=O)Cn1cc(SCC(=O)Nc2cccc(F)c2)c2ccccc21 | inactive: -10.3% | – |
| COc1ccc(C(CC(=O)O)NC(=O)c2cc3ccccc3oc2=O)cc1OC (stereo not drawn) | inactive: -1.85% | – |
| Cc1cccc(Cn2c(=O)n(Cc3ccc(C(=O)NC4CCN(Cc5ccccc5)CC4)cc3)c(=O)c3ccccc32)c1 | inactive: -11.5% | – |
| Oc1ccc(Nc2nc3ccccc3n3cnnc23)cc1 | inactive: 21.3% | – |
| CCOC(=O)c1cnc2c(C)cc(C)cc2c1Nc1cccc(C(=O)O)c1 | inactive: -26.6% | – |
| CCOCCCNC(=O)CN1C(=O)COc2ccc(S(=O)(=O)N3CCCCCC3)cc21 | inactive: -7.76% | – |
| O=C(Nc1cccc2cccnc12)c1ccccc1[N+](=O)[O-] | inactive: 23.5% | – |
| CC(=O)c1ccc(N2CCN(c3ccc(NC(=O)c4cccs4)cc3C(=O)O)CC2)cc1 | inactive: -9.4% | – |
| Cc1ccc(-n2ncc(C(=O)NCCCN3CCCCC3)c2C2CCN(C(=O)OC(C)(C)C)CC2)c(C)c1 | inactive: -16.2% | – |
| Cc1ccc(NC(=O)CSc2nnc3nc(C)cc(C)n23)cc1 | inactive: -18.5% | – |
| CCc1cccc(C)c1NC(=O)CCCn1c(=O)c2cccn2c2cccnc21 | inactive: 4.64% | – |
| CCOC(=O)c1ccccc1NC(=O)NC(C)c1c(-n2cccc2)sc(C)c1C (stereo not drawn) | inactive: -25.6% | – |
| Cc1ccc(C)c(NC(=O)CN2C(=O)c3cccc4cccc2c34)c1 | inactive: -17.2% | – |

| SMILES | activity change, negative = inhibition | Potency |
| --- | --- | --- |
| O=c1c2ccccc2n2c(-c3ccccc3O)nnc2n1Cc1ccc(F)cc1 | inactive: -16.7% | – |
| Cc1cccc(Cn2ccn(Cc3ccc(Cl)cc3)c(=O)c2=O)c1 | inactive: 1.58% | – |
| CCN(CC)C(=O)c1sc(NC(=O)c2nc3ncccn3n2)c(C(=O)OC)c1C | inactive: -18% | – |
| CCCCCC(=O)N1c2ccccc2C(C)(c2ccccc2)CC1(C)C (stereo not drawn) | inactive: -15.6% | – |
| Nc1[nH]nc2nnc(-c3c(-c4ccccc4)nn4ccccc34)cc12 | inactive: -2.57% | – |
| O=C(c1ccccc1Br)N(Cc1ccco1)C1CCS(=O)(=O)C1 (stereo not drawn) | inactive: -0.483% | – |
| CCC(Sc1nc2c(sc3ccccc32)c(=O)n1CCc1ccccc1)C(=O)N(CC)CC (stereo not drawn) | inactive: -2.02% | – |
| COc1cccc(CCNC(=O)Cn2c(-c3cccs3)cc3ccccc32)c1 | inactive: -26.6% | – |
| COc1ccc(Cn2c(C(=O)O)c(CNCC(C)c3ccccc3)c3ccc(OC)cc32)cc1 (stereo not drawn) | inactive: -31.7% | – |
| COc1ccc(NC(=O)CN2C(=O)C(c3ccc(C(C)(C)C)cc3)=NC2(C)C)cc1Cl | inactive: 4.88% | – |
| COc1ccccc1N1CCN(C(=O)C2CCN(S(=O)(=O)c3c(C)noc3/C=C/c3ccc(C)cc3)CC2)CC1 | inactive: -13.4% | – |
| CCCCn1c(SCC(=O)Nc2cccc(OC)c2)nc2c(sc3ccccc32)c1=O | inactive: -12.4% | – |
| Cc1cccc(Cc2cnc(NC(=O)C3Cc4ccc(C)cc4C(=O)O3)s2)c1 (stereo not drawn) | inactive: -4.63% | – |
| Cc1cc(C)cc(-n2c(SCC(=O)NCc3ccco3)nc3c([nH]c4ccccc43)c2=O)c1 | inactive: -12.4% | – |
| CC(C)NC(=O)CCn1c(SCc2c(F)cccc2Cl)nc2c(sc3ccccc32)c1=O | inactive: 1.09% | – |
| COc1ccc(NC(=O)NCCc2c(C)nn(C)c2C)c(OC)c1 | inactive: -0.627% | – |
| Cc1nnc2c(N3CCN(c4ccccc4F)CC3)nc3ccccc3n12 | inactive: -7.84% | – |
| Cc1cc(-n2c(SCC(=O)NCc3ccccc3)nc3ccsc3c2=O)ccc1Cl | inactive: -14.8% | – |
| Cc1ccc(-n2nnc(-c3nsc(NC(=O)c4ccccc4)n3)c2C)cc1 | inactive: 4.96% | – |
| Cc1ccc(-n2nc3ccc(NC(=O)c4oc5ccc(C)cc5c4C)cc3n2)cc1 | inactive: 6.94% | – |
| CCOc1ccc(OCC(=O)NCCS(=O)(=O)N2CCN(c3ccc(F)cc3)CC2)cc1 | inactive: -27.5% | – |
| CCOC(=O)n1ccn(C)c1=S | inactive: -2.64% | – |
| CCCOc1ccccc1C(=O)N1CCCCC1CCN1CCOCC1 (stereo not drawn) | inactive: -4.79% | – |
